Experimental data reported in PubChem BioAssay AID1347165 (National Center for Advancing Translational Sciences (NCATS), 2019).
The campaign covered roughly 220,000 compounds. About 5,700 (2.6%) were called active. Inconclusive means that the source gave no clear call. Such entries were picked first, then a sample of the others. The call rests on the fitted dose curve; in most records, active means well fitted inhibition curve with a large enough effect; inconclusive means small, poorly fitted or top-dose-only effect; inactive means no such curve, though single readings can be large or run the other way. Where the call is inconclusive, the potency comes from a doubtful curve fit.

biological target: Lysine-specific demethylase 5B (Homo sapiens) (UniProt Q9UGL1); assay: Primary screen for KDM5B Histone Demethylases FDH-coupled qHTS; conditions: FDH-coupled NADH fluorescence (FDH is formaldehyde dehydrogenase); activity change, negative = inhibition: at 57.7 µM (top of the series) unless noted; further: nearly all actives have a fitted effect of over 70% in size; on activity change, negative = inhibition: 0% is about no effect
How it was run: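 Compound dilutions met 200 nM (final) KDM5BΔAP for 10 min at room temperature before substrate addition. The substrate mix held 12.5 µM H3K4me3 with cofactors 25 µM α-ketoglutarate and 50 µM Fe²⁺. NADH signal gain over 30 min defined activity.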
Potency means the concentration at half of the fitted maximal effect; tags describe the fitted curve by direction and shape.

Chain of UniProt Q9UGL1 (Q9UGL1 whole entry, looked up): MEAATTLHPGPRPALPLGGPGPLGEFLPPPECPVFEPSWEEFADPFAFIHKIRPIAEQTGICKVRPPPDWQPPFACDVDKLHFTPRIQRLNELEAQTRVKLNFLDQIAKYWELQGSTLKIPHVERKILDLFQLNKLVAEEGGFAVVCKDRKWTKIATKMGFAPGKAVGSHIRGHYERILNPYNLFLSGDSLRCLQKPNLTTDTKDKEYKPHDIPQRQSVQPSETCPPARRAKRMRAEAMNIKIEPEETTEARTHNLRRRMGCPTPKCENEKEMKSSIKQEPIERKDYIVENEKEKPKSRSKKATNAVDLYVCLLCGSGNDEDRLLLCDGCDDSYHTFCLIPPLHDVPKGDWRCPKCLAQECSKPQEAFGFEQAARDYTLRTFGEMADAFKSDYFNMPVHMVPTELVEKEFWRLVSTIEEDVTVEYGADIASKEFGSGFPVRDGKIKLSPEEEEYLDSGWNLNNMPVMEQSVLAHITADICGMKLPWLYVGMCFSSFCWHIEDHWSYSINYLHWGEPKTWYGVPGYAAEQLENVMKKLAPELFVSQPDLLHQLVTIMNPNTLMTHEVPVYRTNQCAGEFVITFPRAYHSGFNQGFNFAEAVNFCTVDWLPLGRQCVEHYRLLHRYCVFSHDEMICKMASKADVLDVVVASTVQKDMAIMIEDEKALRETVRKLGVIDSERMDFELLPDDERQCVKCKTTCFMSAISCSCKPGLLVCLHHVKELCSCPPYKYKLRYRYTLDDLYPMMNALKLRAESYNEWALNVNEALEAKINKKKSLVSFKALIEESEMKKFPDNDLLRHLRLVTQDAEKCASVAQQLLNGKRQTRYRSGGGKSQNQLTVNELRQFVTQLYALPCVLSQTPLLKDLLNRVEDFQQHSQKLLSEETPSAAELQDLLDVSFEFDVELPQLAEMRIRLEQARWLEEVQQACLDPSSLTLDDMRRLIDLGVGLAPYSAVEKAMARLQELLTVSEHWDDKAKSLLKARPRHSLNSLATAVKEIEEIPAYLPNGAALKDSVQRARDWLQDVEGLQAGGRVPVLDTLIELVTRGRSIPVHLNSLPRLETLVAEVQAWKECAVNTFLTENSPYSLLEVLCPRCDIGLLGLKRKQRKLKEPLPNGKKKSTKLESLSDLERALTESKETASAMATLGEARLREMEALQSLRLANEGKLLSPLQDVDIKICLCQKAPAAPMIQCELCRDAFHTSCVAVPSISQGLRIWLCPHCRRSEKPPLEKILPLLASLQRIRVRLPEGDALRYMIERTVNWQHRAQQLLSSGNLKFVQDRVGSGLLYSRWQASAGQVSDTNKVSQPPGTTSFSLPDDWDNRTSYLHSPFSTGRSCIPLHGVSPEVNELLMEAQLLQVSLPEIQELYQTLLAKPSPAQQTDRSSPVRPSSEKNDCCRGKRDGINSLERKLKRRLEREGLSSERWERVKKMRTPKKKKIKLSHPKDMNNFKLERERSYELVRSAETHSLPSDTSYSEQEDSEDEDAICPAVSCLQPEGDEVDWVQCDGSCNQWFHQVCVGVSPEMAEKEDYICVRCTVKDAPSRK

Compound | Potency | activity change, negative = inhibition
CCC1CN(C(=O)Nc2cc(Cl)ccc2C(=O)OC)c2ccccc2S1 (stereo not given) | inconclusive: 31.6 µM [inhibitor, single point] | –
COc1ccc(OC)c(NC(=O)COCc2cc(-c3ccc(F)cc3)on2)c1 | inconclusive: 25.1 µM [inhibitor, partial curve, poor fit] | –
CCN1CC(C(=O)N2CCN(CCOc3ccccc3)CC2)CC1=O (stereo not given) | active: 25.1 µM | –
COc1ccc(N2CCCCS2(=O)=O)cc1S(=O)(=O)NCCc1ccccc1 | – | inactive: 16.8%
Cc1ccc(C)c(Cn2c(=O)n(CCCC(=O)NCc3ccc4c(c3)OCO4)c(=O)c3sccc32)c1 | inconclusive: 3.55 µM [inhibitor, full curve, poor fit] | –
Cc1ccc(-c2cc3c(ccn3CC3CCN([S+](C)(=O)[O-])CC3)c(N3CCOCC3)n2)cn1 | active: 31.6 µM | –
O=C1c2c(nc(CNc3cccc(F)c3)n2Cc2ccccc2)NCCN1CCN1CCCCC1 | inconclusive: 25.1 µM [inhibitor, single point] | –
COc1ccc(N2Cc3cccc(C(=O)NCc4ccc(Cl)cc4)c3C2=O)cc1 | inconclusive: 39.8 µM [inhibitor, partial curve, poor fit] | –
COc1ccc2nc(N3C(=O)C(O)=C(C(=O)c4ccco4)C3c3ccco3)sc2c1 (stereo not given) | inconclusive: 10 µM [inhibitor, full curve, poor fit] | –
CSc1ccc(-c2nc(CN3CCOC(CCO)C3)c(C)o2)cc1 (stereo not given) | active: 15.8 µM | –
COc1cc2c(cc1NC(=O)C(C)Oc1ccccc1)oc1ccccc12 (stereo not given) | inconclusive: 35.5 µM [inhibitor, partial curve, poor fit] | –
Cc1cc(C)c2c(N)c(C(=O)Nc3ccccc3C(F)(F)F)sc2n1 | inconclusive: 31.6 µM [inhibitor, partial curve, poor fit] | –
CCc1ccccc1NC(=O)CSc1nc2c(c(=O)[nH]1)CN(Cc1ccccc1OC)CC2 | inconclusive: 25.1 µM [inhibitor, single point] | –
COC(=O)c1c(NC(=O)c2ccco2)c2cc(NC(C)CCn3cccn3)cnc2n1C (stereo not given) | inconclusive: 4.47 µM [inhibitor, full curve] | –
Cn1ncc2c(N[C@@H](Cc3ccccc3)C(N)=O)nc(-c3ccncc3)nc21 | inconclusive: 25.1 µM [inhibitor, single point] | –
O=c1c(N2CCN(Cc3ccccc3)CC2)csc2ccc(Cl)cc12 | inconclusive: 25.1 µM [inhibitor, partial curve, poor fit] | –
CC(=O)c1c(C)n(-c2cccc3ccccc23)c2ccc(O)cc12 | – | inactive: 11.9%
O=C(NCc1ccc(Cl)cc1Cl)c1cccc(N2CCCS2(=O)=O)c1 | inconclusive: 15.8 µM [inhibitor, partial curve, poor fit] | –
Cc1cc(NC(=O)c2cc(-c3ccc(Br)cc3)nc3ccccc23)nn1C | inconclusive: 39.8 µM [inhibitor, single point] | –
CC1Cc2cc(S(=O)(=O)NCCC(=O)NCc3ccco3)ccc2N1C(=O)C1CC1 (stereo not given) | – | inactive: -18.3%
C/C=C/Cn1c(SCCCCC)nc2c1c(=O)[nH]c(=O)n2C | – | inactive: 4.32%
O=C(Nc1ccccc1Br)N1CCC(CN2CCCC2)CC1 | – | inconclusive: -30.1% [inhibitor]

Compound | Potency | activity change, negative = inhibition
COCC(=O)n1nc(NCc2ccc(Cl)cc2Cl)nc1NCc1ccc(Cl)cc1Cl | inconclusive: 39.8 µM [inhibitor, single point] | –
COc1ccc(-c2cc(C[C@@H]3CC[C@H](O)[C@@H](CN(Cc4cccc(OC)c4)Cc4cccc(OC)c4)O3)no2)cc1 | inconclusive: 17.8 µM [inhibitor, single point] | –
COc1ccc(CN2CCCC3(CC(c4ccccc4)=NO3)C2)cc1 (stereo not given) | – | inactive: -0.963% [at 115 µM]
O=C(N1CC=C(c2ccc(F)cc2)CC1)C12CNCC1CNC2 (stereo not given) | inconclusive: 3.16 µM [inhibitor, partial curve, poor fit] | –
CCOc1ccc(CNC(=O)Cn2c(=O)c3cccn3c3ccccc32)cc1 | – | inactive: -26.6%
COc1ncccc1CNC(=O)Nc1ccc(Br)c(C)c1 | – | inactive: 15%
CS(=O)(=O)N1C[C@H]2CCN(C(=O)c3cccc4[nH]ccc34)C[C@H]21 | active: 17.8 µM | –
CC(C)CNc1cccc2c1S(=O)(=O)N(Cc1cn(Cc3ccc(Cl)cc3)nn1)Cc1ccccc1O2 | inconclusive: 22.4 µM [inhibitor, partial curve, poor fit] | –
CCOCCCNCc1cccc(Cl)c1 | – | inactive: -21.2%
CCc1cc(=O)oc2cc(OCC(=O)N(C)C)ccc12 | inconclusive: 20 µM [inhibitor, partial curve, poor fit] | –
CCOc1ccc(NC(=O)CC2C(=O)NCCN2C(=O)Nc2ccccc2)cc1 (stereo not given) | inconclusive: 31.6 µM [inhibitor, partial curve, poor fit] | –
Cc1ccccc1C(CC(=O)Nc1cccc(-c2ccno2)c1)n1cccc1 (stereo not given) | – | inactive: -7.39%
Cc1c(CC(=O)NCc2ccc(Cl)cc2)c(=O)oc2c(C)c(O)ccc12 | inconclusive: 2 µM [inhibitor, full curve, poor fit] | –
CCCCCNC(=O)Cc1csc2nc(C)c(-c3cc(C)n(-c4ccc(F)cc4)n3)c(=O)n12 | inconclusive: 25.1 µM [inhibitor, partial curve, poor fit] | –
O=C(Nc1ccc(CC(=O)N2CCOCC2)cc1)c1cc(Cl)ccc1Cl | – | inactive: 3.97%
CCc1ccc(C(=O)NC2=NC(c3ccccc3F)CC(=O)N2)cc1 (stereo not given) | – | inconclusive: -31.4% [inhibitor]
CCOC(=O)c1c(NC(=O)c2ccc(C)c(C)c2)sc2c1CCCCC2 | inconclusive: 1 µM [inhibitor, full curve, poor fit] | –
CC(=O)NCCNC(=O)[C@@H]1Cc2cn(Cc3cc(C)on3)c3cccc(c23)[C@H](CC(C)C)N1 | inconclusive: 2.82 µM [inhibitor, full curve, poor fit] | –
COc1ccc(OC)c(NC(=O)c2nc3nc(C)cc(C(F)F)n3n2)c1 | – | inactive: -1.67%
Cn1cnc(C(=O)N2C[C@@H](COc3ccccc3)[C@H](C(N)=O)C2)c1 | inconclusive: 2.82 µM [inhibitor, full curve] | –
CC1=C(c2ccc(C)c(C)c2)S(=O)(=O)NC1=NC(C)C12CC3CC(CC(C3)C1)C2 (stereo not given) | – | inactive: 6.4%
Cn1cc(C(=O)NCc2nnc3n2C(C(=O)NC2CC2)CC3)cn1 (stereo not given) | – | inactive: -4.92% [at 149 µM]

Compound | Potency | activity change, negative = inhibition
CC(C)NC(=O)C[C@@H]1c2nc(NC(=O)c3ccc(C(C)(C)C)cc3)sc2C[C@@H]2[C@](C)(CO)[C@H](O)CC[C@]21C | active: 31.6 µM | –
CCOc1cccc(CNC(=O)c2cc3n(n2)CC(c2ccc(Cl)cc2)OC3)c1 (stereo not given) | inconclusive: 17.8 µM [inhibitor, partial curve] | –
Cn1nccc1C(O)c1cc2n(n1)CCN(C/C=C/c1ccccc1)C2 (stereo not given) | active: 31.6 µM | –
O=C1CCN(C(=O)c2cc3ccccc3[nH]2)CCCCCCN1 | inconclusive: 15.8 µM [inhibitor, partial curve, poor fit] | –
CCC(C)C(NC(=O)C(C)NC(=O)CNC(=O)OCc1ccccc1)C(N)=O (stereo not given) | – | inactive: -5.12%
Cc1nnc(N2CCCC(C(=O)NCCc3ccccc3)C2)c2nn(-c3ccccc3)c(C)c12 (stereo not given) | inconclusive: 31.6 µM [inhibitor, partial curve, poor fit] | –
Cc1ccn2cc(-c3ccc(C)c(NS(=O)(=O)c4ccc(Cl)cc4)c3)nc2c1 | inconclusive: 35.5 µM [inhibitor, partial curve, poor fit] | –
Cc1ccc(S(=O)(=O)c2nc(-c3cccc(Cl)c3)oc2NCc2ccccc2)cc1 | inconclusive: 31.6 µM [inhibitor, partial curve, poor fit] | –
CCCCOc1cccc(-c2cc(C(=O)O)c3ccccc3n2)c1 | – | inactive: 3.6%
COCCn1c(C)cc(C(=O)CSc2nnc(Nc3ccccc3C)s2)c1C | – | inactive: 15.3%
CCN1CCN(Cc2c(O)ccc3cc(-c4ccc(OC)cc4)c(=O)oc23)CC1 | inconclusive: 25.1 µM [inhibitor, partial curve, poor fit] | –
COc1cccc(-c2ccc(C(=O)NCCCn3ccnc3C(C)C)cn2)c1 | active: 28.2 µM | –
Cc1ccc(S(=O)(=O)N[C@H]2CO[C@H]3[C@@H]2OC[C@@H]3n2nnnc2Oc2ccc(-n3cncn3)cc2)cc1 | – | inactive: 2.02%
Cc1noc2c(-c3cccnc3NC3CCC(O)CC3)cc(-c3ccccc3)nc12 (stereo not given) | inconclusive: 35.5 µM [inhibitor, partial curve, poor fit] | –
COc1ccc(C2c3cccn3CCN2S(=O)(=O)c2ccc([N+](=O)[O-])cc2)cc1 (stereo not given) | inconclusive: 31.6 µM [inhibitor, single point] | –
COc1ccc(C)cc1Nc1nc(N)c2cc(OC)c(OC)cc2n1 | inconclusive: 39.8 µM [inhibitor, single point] | –
CCCCn1c(=NC(=O)c2ccco2)c(C(=O)OCC)cc2c(=O)n3cccc(C)c3nc21 | inconclusive: 28.2 µM [inhibitor, partial curve, poor fit] | –
Cc1nc2c(c(C)nn2-c2ccccc2)c(C)c1CCC(=O)NCc1ccccc1 | inconclusive: 35.5 µM [inhibitor, partial curve, poor fit] | –
O=C(c1cccc(F)c1)N(Cc1ccco1)C1CC1 | – | inactive: 13.3%
COc1cccc2c1OCC(CNC(=O)c1ccccc1N1CCCC1)C2 (stereo not given) | inconclusive: 25.1 µM [inhibitor, partial curve, poor fit] | –
CCN1CCN(c2cc(C)c3cc(NC(=O)c4ccc(OC)c(OC)c4)ccc3n2)CC1 | inconclusive: 31.6 µM [inhibitor, single point] | –
